Experimental data taken from PubChem BioAssay AID2675 (National Center for Advancing Translational Sciences (NCATS), 2010).
Screen size: about 280,000 compounds; about 100 (0.036%) were called active. The inconclusive results got no clear call from the source; some entries with a clear call stand among them for comparison. The call rests on the fitted dose curve; in most records, active means well fitted inhibition curve with a large enough effect in the signal ratio, with a control signal flat (not every such curve was filed as active); inconclusive means small, poorly fitted or top-dose-only effect, or effect the other way, or a change in a side signal; inactive means no such curve, though single readings can be large or run the other way; the % refers to the signal ratio. Where the call is inconclusive, the potency comes from a doubtful curve fit. A note “side channel” means that the fit belongs to a control or component signal, not to the main read-out.

Biological target: Muscleblind-like protein 1 (Homo sapiens) (UniProt Q9NR56)
Assay: qHTS Assay for Inhibitors of MBNL1-poly(CUG) RNA binding
Conditions: TR-FRET MBNL1-His/biotin-(CUG)12 binding, 665/545 ratio; activity change, negative = inhibition: at 57.5 µM (top of the series)
Method in brief: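 MBNL1-His + Biotin-(CUG)12, cpd titration 92 nM–58 uM; Tb anti-His Ab 0.055 ng/ul, SA-XL665 5 nM (final); 60 min RT; ratiometric 665/545 nm, Ex 340 nm; normalized to buffer and full-complex controls.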
On the % scale 0 is the no-effect control and ±100 the full control effect; potency means the concentration at half of the fitted maximal effect; tags describe the fitted curve by direction and shape or compound fluorescence and quenching.

Chain of UniProt Q9NR56 (Q9NR56 whole entry, looked up): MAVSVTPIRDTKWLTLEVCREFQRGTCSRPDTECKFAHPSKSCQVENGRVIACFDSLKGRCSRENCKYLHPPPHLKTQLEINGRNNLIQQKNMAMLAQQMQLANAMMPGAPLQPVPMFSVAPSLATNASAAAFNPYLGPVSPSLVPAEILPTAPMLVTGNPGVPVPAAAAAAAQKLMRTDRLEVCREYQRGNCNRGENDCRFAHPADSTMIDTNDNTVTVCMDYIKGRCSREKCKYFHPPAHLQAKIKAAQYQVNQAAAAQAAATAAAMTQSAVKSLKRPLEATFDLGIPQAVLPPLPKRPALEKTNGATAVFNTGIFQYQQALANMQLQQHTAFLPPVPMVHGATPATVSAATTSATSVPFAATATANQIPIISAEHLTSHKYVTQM

Compound | Potency | activity change, negative = inhibition
CC(C(=O)NC1CCCCC1)N1C(=O)c2cccc3cccc1c23 (stereo not given) | inconclusive: 31.6 µM [quencher, side channel, single point] | –
C#Cc1ccc([C@@H]2C=C(C(=O)O)O[C@H](OCc3ccc(CO)cc3)C2)cc1 | inconclusive: 25.1 µM [quencher, side channel, single point] | –
CC(=O)Nc1ccc(Nc2cc(N3CCOCC3)c3nonc3c2[N+](=O)[O-])cc1 | inconclusive: 2.51 µM [quencher, side channel, full curve] | –
CCOc1cc(/C=C(\C#N)C(=O)NCC2CCCO2)ccc1O (stereo not given) | inconclusive: 28.2 µM [quencher, side channel, single point] | –
O=C(N/C(=C\c1ccc([N+](=O)[O-])cc1)C(=O)N1CCCCC1)c1ccccc1 | inconclusive: 7.08 µM [quencher, full curve, poor fit] | –
CC1CCCCN1C(=O)c1cc2nc(-c3ccccc3)cc(-c3ccccc3)n2n1 (stereo not given) | inconclusive: 0.708 µM [quencher, side channel, full curve, poor fit] | –
CCOC(=O)CCN(c1ccccc1)S(=O)(=O)c1ccc(-c2ccc(=O)[nH]n2)s1 | inconclusive: 15.8 µM [quencher, single point] | –
O=C(CSc1ccc([N+](=O)[O-])cn1)Nc1cc(C(F)(F)F)ccc1N1CCOCC1 | inconclusive: 25.1 µM [quencher, side channel, partial curve] | –
CC(C)(C=O)C1=CC(=O)c2ccccc2C1=O | inconclusive: 14.1 µM [quencher, side channel, partial curve] | –
Cc1nc(SCC(=O)NCC2CCCO2)c2c3c(sc2n1)CCCC3 (stereo not given) | – | inactive: -0.663%
CCN1C(=O)C(O)(CC(=O)c2ccc(-n3cccc3)cc2)c2ccccc21 (stereo not given) | – | inactive: -1.69%
O=c1[nH]cnc2ccc([N+](=O)[O-])cc12 | inconclusive: 8.91 µM [quencher, side channel, partial curve] | –
O=C(c1ccc(-c2cccc(Cl)c2)o1)N1CCN(c2ccc([N+](=O)[O-])cc2)CC1 | – | inactive: -1.5%
CCC(=O)Nc1nc(C)c(-c2csc(Nc3ccc(C(=O)O)cc3)n2)s1 | inconclusive: 14.1 µM [quencher, side channel, partial curve] | –
Cc1cc(C)nc(N2CCCC(C(=O)NCc3ccccc3)C2)n1 (stereo not given) | inconclusive: 79.4 µM [inhibitor, single point] | –
C(=N\n1cnnc1)/c1ccc(-c2ccccc2)cc1 | inconclusive: 17.8 µM [quencher, side channel, partial curve] | –
COc1cccc(/C=C2\SC(=S)N(C(Cc3ccccc3)C(=O)O)C2=O)c1 (stereo not given) | – | inactive: 0.871%
C=CCNCCCCOc1ccc(OCc2ccccc2)cc1 | – | inactive: -3.78%
N#Cc1sc2nc(C3CC3)cc(-c3ccc(Cl)cc3)c2c1N | inconclusive: 12.6 µM [quencher, side channel, partial curve] | –
Cc1ccc(/C=C/C(=O)NCc2ccc(S(N)(=O)=O)cc2)o1 | inconclusive: 28.2 µM [quencher, side channel, partial curve] | –

Compound | Potency | activity change, negative = inhibition
COc1cc(/C=C/C(=O)Nc2ccc3nc4n(c(=O)c3c2)CCCC4)cc(OC)c1OC | inconclusive: 15.8 µM [quencher, side channel, partial curve] | –
Cc1nc([N+](=O)[O-])c(C(=O)OCc2ccccc2C#N)n1C | inconclusive: 28.2 µM [quencher, side channel, partial curve] | –
COc1ccc(CN=Cc2c(O)[nH]c3ccccc23)cc1 | inconclusive: 12.6 µM [quencher, side channel, partial curve] | –
CCOc1cc(C(=O)Nc2cc3c(cc2N2CCOCC2)n(C)c(=O)n3C)cc(OCC)c1OCC | – | inactive: -5.15%
Cc1cc(N/N=C/c2ccc(F)cc2)nc(-n2nc(C)cc2C)n1 | – | inactive: -2.9%
COc1ccccc1NC(=S)N1CCN(c2nc(-c3ccccc3)cs2)CC1 | – | inactive: 9.32%
O=C(CCCN1C(=O)/C(=C/c2cccs2)SC1=S)Nc1ccc(O)cc1 | inconclusive: 12.6 µM [quencher, side channel, partial curve] | –
Cc1[nH][nH]c(=O)c1C(c1c(C)[nH][nH]c1=O)c1cn(Cc2ccc(F)cc2)c2ccccc12 | inconclusive: 39.8 µM [inhibitor, single point] | –
Cc1occc1C(=O)NNC(=O)Nc1ccc(Cl)c(Cl)c1 | inconclusive: 0.1 µM [fluorescent, side channel, full curve, poor fit] | –
O=[N+]([O-])c1cccc(C2(O)COc3ccccc3O2)c1 (stereo not given) | inconclusive: 7.94 µM [quencher, side channel, partial curve] | –
c1cncc(CSc2nnc3ccc(-c4ccncc4)nn23)c1 | inconclusive: 12.6 µM [quencher, side channel, partial curve] | –
CCOC(=O)C1CCCN(C2=C(NS(=O)(=O)c3ccc(Br)cc3)C(=O)c3ccccc3C2=O)C1 (stereo not given) | inconclusive: 10 µM [quencher, side channel, partial curve] | –
CN(CC(=O)N1CC(=O)N(CCc2ccccc2)C(=O)C1)S(=O)(=O)c1cccc2nsnc12 | inconclusive: 15.8 µM [quencher, side channel, partial curve] | –
CN1CCN(/N=C/c2ccc(-c3ccc([N+](=O)[O-])cc3)o2)CC1 | inconclusive: 12.6 µM [quencher, side channel, partial curve] | –
COc1ccc2cc(C(c3nnnn3C(C)(C)C)N3CCc4ccccc4C3)c(=O)[nH]c2c1 (stereo not given) | inconclusive: 28.2 µM [quencher, side channel, single point] | –
Cc1c(NC(=O)/C(C#N)=C\c2cccs2)c(=O)n(-c2ccccc2)n1C | inconclusive: 20 µM [quencher, side channel, single point] | –
COc1ccc(OC)c2c1sc(=NC(=O)C(C)C)n2C | inconclusive: 39.8 µM [fluorescent, single point] | –
CC(C)Sc1ccc([N+](=O)[O-])cc1C(=O)Nc1ccncc1 | inconclusive: 15.8 µM [quencher, side channel, partial curve] | –
O=C(/C=C/c1ccc(OC(F)F)cc1)Nc1cccc(S(=O)(=O)N2CCOCC2)c1 | – | inactive: 16%
Cc1ccc(/C=N/NC(=O)c2ccc(-c3ccccc3)cc2)o1 | – | inactive: 10.7%

Compound | Potency | activity change, negative = inhibition
CCOc1ccc(NC(=O)CCNS(=O)(=O)c2cccc3nonc23)cc1 | inconclusive: 14.1 µM [quencher, side channel, partial curve] | –
FC(F)(F)C1=CC(c2ccc(Cl)cc2)=NCCN1 | inconclusive: 14.1 µM [quencher, side channel, single point] | –
CNc1ncc(C(=O)c2ccc(Cl)c(Cl)c2)s1 | inconclusive: 6.31 µM [quencher, side channel, partial curve] | –
O=C(CCNC(=O)c1ccc([N+](=O)[O-])cc1)Nc1ccc(F)c(F)c1F | inconclusive: 15.8 µM [quencher, partial curve] | –
CN(C(=O)COC(=O)CNC(=O)c1ccc2ccccc2c1)c1c(N)n(Cc2ccccc2)c(=O)[nH]c1=O | inconclusive: 31.6 µM [quencher, side channel, single point] | –
CCNC(=O)COC(=O)c1cc(-c2ccco2)nc2ccccc12 | inconclusive: 17.8 µM [quencher, side channel, partial curve] | –
OCCNc1ncnc2ccc(Br)cc12 | – | inactive: -6.44%
O=c1cnnc(N/N=C/c2ccc3c(c2)OCO3)[nH]1 | – | inactive: -8.33%
O=C1C=C(c2ccccc2)OC2(CCCC2)O1 | inconclusive: 0.708 µM [fluorescent, side channel, full curve] | –
N#C/C(=C\c1ccc(O)c(O)c1)C(=O)Nc1cccc2ncccc12 | inconclusive: 25.1 µM [quencher, side channel, single point] | –
CCOc1ccccc1NC(=S)NC(=O)C1CCCCC1 | – | inactive: -11.9%
CSc1ccccc1NC(=O)COc1ccc(Cl)cc1 | inconclusive: 12.6 µM [quencher, side channel, single point] | –
COc1cc(/C=C2\SC(=S)N(NS(=O)(=O)c3ccc(C)cc3)C2=O)ccc1O | inconclusive: 39.8 µM [quencher, side channel, single point] | –
O=c1[nH]c2cc(Cl)c([N+](=O)[O-])nc2[nH]1 | inconclusive: 39.8 µM [activator, single point] | –
O=C(O)C1CC=CCC1C(=O)N1CCN(c2nc(-c3ccccc3Cl)c3cc(Br)ccc3n2)CC1 (stereo not given) | inconclusive: 31.6 µM [fluorescent, side channel, single point] | –
O=[N+]([O-])c1ccc(OC/C=C2\Oc3ccc([N+](=O)[O-])cc3C2N2CCOCC2)cc1 (stereo not given) | inconclusive: 39.8 µM [quencher, single point] | –
CC(=O)Oc1cc2cccc(OC(C)=O)c(=O)c2c(OC(C)=O)c1OC(C)=O | inconclusive: 22.4 µM [quencher, single point] | –
O=C(CSc1ccccn1)N/N=C/c1cc([N+](=O)[O-])ccc1O | inconclusive: 39.8 µM [quencher, single point] | –
COc1ccc(CCN2CCCC(CN(C)Cc3cccc(OC)c3)C2)cc1 (stereo not given) | – | inactive: -3.29%
O=[N+]([O-])c1ccc(N2CCCCC2)s1 | inconclusive: 12.6 µM [quencher, side channel, partial curve] | –
